Out of some 54,000 compounds screened, about 120 (0.22%) were called active. The shares of active, inactive and inconclusive entries below differ from those in the screen. The call rests on the fitted dose curve; in most records, active means well fitted inhibition curve with a large enough effect; inconclusive means small, poorly fitted or top-dose-only effect, or effect the other way; inactive means flat fitted curve, though single readings scatter. Potencies of inconclusive entries are left out as doubtful fits.
These compounds were tested against Fumarate hydratase, mitochondrial (Homo sapiens) (UniProt P07954) (assay: Identification of activators of human fumarate hydratase by quantitative high-throughput screening). Settings: FH coupled MDH/diaphorase resazurin fluorescence, 15 min; activity change, negative = inhibition: at 79.9 µM (top of the series).
Sequence of UniProt P07954 (P07954 whole entry, looked up): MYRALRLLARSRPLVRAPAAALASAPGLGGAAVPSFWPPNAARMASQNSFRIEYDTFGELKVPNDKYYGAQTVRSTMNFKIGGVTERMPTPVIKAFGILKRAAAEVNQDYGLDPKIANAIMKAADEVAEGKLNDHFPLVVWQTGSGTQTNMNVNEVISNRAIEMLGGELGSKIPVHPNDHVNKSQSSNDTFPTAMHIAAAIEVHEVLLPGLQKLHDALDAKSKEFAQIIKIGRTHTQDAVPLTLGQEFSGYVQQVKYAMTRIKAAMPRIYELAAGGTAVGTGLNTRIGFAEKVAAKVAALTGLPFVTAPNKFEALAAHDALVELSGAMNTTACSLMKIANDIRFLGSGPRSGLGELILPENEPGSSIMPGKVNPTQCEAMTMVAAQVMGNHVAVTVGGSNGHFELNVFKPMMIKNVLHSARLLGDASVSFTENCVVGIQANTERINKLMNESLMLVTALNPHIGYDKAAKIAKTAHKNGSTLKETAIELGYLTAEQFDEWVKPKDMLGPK
Further: the screen sought activators but most active calls are inhibition curves; nearly all actives have a fitted effect of over 45% in size.
On the % scale 0 is the no-effect control and ±100 the full control effect; potency means the concentration at half of the fitted maximal effect; tags describe the fitted curve by direction and shape.

Row | Structure (SMILES) | Potency | activity change, negative = inhibition
1 | CC1(CN2CCC(n3c(=O)[nH]c4ccccc43)CC2)OCc2ccccc2-n2cccc21 (centres undefined) | inconclusive [inhibitor, single point] | 
2 | COc1ccc(NC(=O)CSc2n[nH]c(-c3ccccc3)n2)cc1Cl | inconclusive [inhibitor, partial curve] | 
3 | Cc1ccccc1CN1C(=O)C(O)(CC(=O)c2cccc(Br)c2)c2ccccc21 (centres undefined) | active: 31.6 µM | 
4 | COc1ccc(CCCc2nnc(SCC(=O)Nc3ccc(Cl)cc3)o2)cc1 | inconclusive [inhibitor, single point] | 
5 | CCc1ccccc1NC(=O)c1ccc2[nH]c(C)c(C)c2c1 |  | inactive: -16.1%
6 | C[C@@H](Oc1cc(-n2cnc3ccc(OC4CCN(C)CC4)cc32)sc1C(N)=O)c1ccccc1C(F)(F)F |  | inactive: -11%
7 | COc1ccc(CCNC(=O)c2cc3c(=O)[nH]c4ccc(C)cc4c3s2)cc1OC | inconclusive [inhibitor, full curve] | 
8 | CSc1ncc(C(=O)Nc2cccc(Cl)c2C)c(-c2ccccc2)n1 | inconclusive [inhibitor, single point] | 
9 | Cc1ccc(Cl)cc1N(C)C(=O)c1cc2ccc3cccnc3c2[nH]1 | inconclusive [inhibitor, partial curve] | 
10 | Cc1ccccc1C(=O)Nc1ccc(C(=O)OCc2cc(=O)n3c4c(sc3n2)CCCC4)cc1 | inconclusive [inhibitor, partial curve, poor fit] | 
11 | Cc1nn(CC(=O)NCc2ccccc2Br)c(=O)c2cc3occc3n12 | inconclusive [inhibitor, single point] | 
12 | Cc1cccc(OCCCCn2c(C3CC(=O)N(c4ccc(C)cc4C)C3)nc3ccccc32)c1 (centres undefined) | inconclusive [inhibitor, partial curve, poor fit] | 
13 | Cc1cccc(C)c1Nc1c(-c2ccccc2O)nc2ncccn12 | inconclusive [inhibitor, single point] | 
14 | Cc1ccc(C(=O)CSc2nnc3ccc4ccccc4n23)cc1 | inconclusive [inhibitor, partial curve, poor fit] | 
15 | O=C1NC(=O)/C(=C/c2ccc(-c3ccc(F)cc3O)o2)S1 | inconclusive [inhibitor, single point] | 
16 | Cc1ccc(NC(CNS(=O)(=O)c2ccc(Cl)cc2)c2ccccc2)cc1 (centres undefined) | inconclusive [inhibitor, partial curve] | 
17 | COc1ccc(C(=O)NCc2cc(C(C)C)no2)cc1OC1CCN(C)CC1 |  | inactive: -3.72%
18 | C[C@@H]1C/C=C/C=C\C=C\C=C\[C@H](O[C@@H]2O[C@H](C)[C@@H](O)[C@H](N)[C@@H]2O)C[C@@H]2O[C@](O)(C[C@@H](O)C[C@H]3O[C@@H]3/C=C/C(=O)O1)C[C@H](O)[C@H]2C(=O)O |  | inactive: -0.5% [at 20.6 µM]
19 | CCOC(=O)c1cnc(NCc2ccc(Cl)cc2)c2ccccc12 | inconclusive [inhibitor, single point] | 
20 | CCOC(=O)c1ccc(Nc2nc3nonc3nc2Nc2cccc(C)c2C)cc1 | inconclusive [inhibitor, single point] | 

Row | Structure (SMILES) | Potency | activity change, negative = inhibition
21 | CNC(=O)c1ccc2cc([C@@]3(O)CCn4cncc43)ccc2c1 |  | inactive: 3.63%
22 | O=C(/C=C/c1ccc(O)cc1)OC[C@H]1O[C@@H](OC(=O)/C=C/c2ccccc2)[C@H](O)[C@@H](O)[C@@H]1O |  | inactive: 0.169% [at 53.3 µM]
23 | CC(C)=CCCC(C)=CCCC(C)=CCSc1ccccc1C(=O)O |  | inactive: -18.5% [at 53.3 µM]
24 | CCCCCCCC/C=C\CCCCCCCC(=O)NCc1ccc(O)c(OC)c1 | inconclusive [inhibitor, partial curve] | 
25 | COc1ccc(C2=C(C)C(=O)N(Cc3ccc(C(=O)Nc4cccc(F)c4)cc3)S2(=O)=O)cc1 |  | inactive: -7.19%
26 | CCN(CC)C(=O)CSc1nc2cc3c(cc2c(=O)n1CCCCCC(=O)NCc1ccc(OC)cc1)OCO3 | inconclusive [inhibitor, full curve, poor fit] | 
27 | CCN(CCCNC(=O)c1ccc(Sc2ccc(F)cc2)c(NC(C)=O)c1)c1ccccc1 | inconclusive [inhibitor, single point] | 
28 | CCN(CC)CCNC(=O)c1cc2c(=O)[nH]c3ccc(C)cc3c2s1 |  | inactive: -15.6%
29 | COc1cc(N(C)CCN(C)C)c(N)cc1Nc1nccc(-c2cn(C)c3ccccc23)n1 |  | inactive: -5.96%
30 | CCN(c1cc(C)cc(C)c1)S(=O)(=O)c1nnc(NC(=O)c2cccc(F)c2)s1 | inconclusive [inhibitor, single point] | 
31 | CC(C)(C)c1ccc(S(=O)(=O)Nc2ccc(O)c(Sc3nc4ccccc4s3)c2)cc1 | inconclusive [inhibitor, partial curve] | 
32 | COC(=O)c1ccc(NS(=O)(=O)c2ccc3[nH]c4c(c3c2)CCCC4)cc1 | inconclusive [inhibitor, single point] | 
33 | CCCSc1ncc(Cl)c(C(=O)N(Cc2cccc(Cl)c2)C2CCS(=O)(=O)C2)n1 (centres undefined) |  | inactive: -21.2%
34 | O=C(CN1CCCN(Cc2ccc(F)cc2)S1(=O)=O)Nc1ccc2c(c1)OCCO2 | inconclusive [inhibitor, full curve, poor fit] | 
35 | CC(=O)Nc1cccc(Nc2nc3ccccc3n3c(C)nnc23)c1 | inconclusive [inhibitor, partial curve, poor fit] | 
36 | C/C=C(\C)C(=O)O[C@@H]1CC2[C@@H](CC=C3C[C@@H](O[C@H]4C[C@H](OC)[C@H](O[C@H]5C[C@H](OC)[C@H](O[C@@H]6O[C@H](C)[C@@H](O[C@H]7C[C@H](OC)[C@H](O[C@@H]8O[C@H](CO)[C@@H](O)[C@H](O)[C@H]8O)[C@@H](C)O7)[C@H](OC)[C@H]6O)[C@@H](C)O5)[C@@H](C)O4)CC[C@@]32C)[C@@]2(O)CC[C@H](C(C)=O)[C@@]12C (some centres undefined) |  | inactive: -1.21% [at 13.5 µM]
37 | COc1ccc2c(c1)CCc1sc(NC(=O)c3ccc(Br)cc3)nc1-2 | inconclusive [inhibitor, partial curve, poor fit] | 
38 | CC(C)(C)c1ccc(Oc2nc3ccccn3c(=O)c2/C=C(\C#N)c2nc3ccccc3s2)cc1 | inconclusive [inhibitor, partial curve, poor fit] | 
39 | COc1ccc(S(=O)(=O)N(CC(=O)Nc2cc(C)ccc2OC)Cc2ccccc2)cc1 | inconclusive [inhibitor, single point] | 
40 | CCOc1ccccc1NS(=O)(=O)c1ccc2[nH]c3c(c2c1)CCCCC3 | inconclusive [inhibitor, single point] | 

Row | Structure (SMILES) | Potency | activity change, negative = inhibition
41 | CCOc1ccc(CCNC(=O)c2cc3c(=O)n(C)c4ccccc4c3n2C)cc1OCC | inconclusive [inhibitor, partial curve] | 
42 | COC(=O)c1sccc1S(=O)(=O)N1CCN(c2ccc(C)cc2C)CC1 | inconclusive [inhibitor, partial curve, poor fit] | 
43 | COc1ccc(CNC(=O)CSc2ncc3c(n2)-c2cc(Cl)ccc2N(Cc2ccccc2)S3(=O)=O)cc1 | inconclusive [inhibitor, single point] | 
44 | Cc1ccc(Cl)cc1N1CCN(C(=O)Cn2c(-c3cccs3)cc3cc(F)ccc32)CC1 |  | inactive: -2.13%
45 | CN(C)CCCNC(=O)c1ccc(-c2cc(O)c3ncccc3c2)cc1 | inconclusive [activator, single point] | 
46 | COc1ccc(C)cc1NS(=O)(=O)c1ccc2c3c(cccc13)C(=O)N2 | inconclusive [inhibitor, partial curve] | 
47 | CCCn1c(=O)c2sccc2n2c(CCCC(=O)Nc3ccc(Oc4ccc(Cl)cc4)cc3)nnc12 | inconclusive [inhibitor, single point] | 
48 | CC(C)NC(=O)N1CC[C@H](N=C2Nc3cc(F)ccc3N(CC(F)F)c3ccc(Cl)cc32)C1 |  | inactive: 3.6% [at 20.6 µM]
49 | C=CCc1c(C)nc2nc(SCC(=O)Nc3ccc(C)c(C)c3)nn2c1C | inconclusive [inhibitor, single point] | 
50 | Cc1ccc(S(=O)(=O)N(CC(=O)NCCc2ccc(Cl)cc2)c2ccccc2C)cc1 | inconclusive [inhibitor, partial curve, poor fit] | 
51 | Cc1ccc(OCC(=O)Nc2nc(-c3ccc(Br)cc3)ns2)cc1C | inconclusive [inhibitor, single point] | 
52 | O=C(NCc1ccc(F)cc1)c1ccc2c(c1)nnn2C1CCCC1 | inconclusive [activator, single point] | 
53 | CC(=O)N1CCc2cc(S(=O)(=O)NC(Cc3ccccc3)C(=O)NCc3ccc(C)cc3)ccc21 (centres undefined) |  | inactive: 10.6%
54 | O=C(Nc1ccc(Br)cc1)c1ccc(F)c(S(=O)(=O)N2CCc3ccccc32)c1 |  | inactive: -26.5%
55 | O=C1c2ccccc2C(=O)c2c(NCCc3ccc(O)cc3)ccc(NCCc3ccc(O)cc3)c21 | inconclusive [inhibitor, partial curve, poor fit] | 
56 | CC(C)C1CCC(CO)=CC1/C=C(\CO)C(=O)OCC1(O)CCC(C(C)C)C2C=C(C(=O)O)COC(=O)C21 (centres undefined) |  | inactive: -9.34% [at 53.3 µM]
57 | CCC1(O)CC2c3cc(OC)c(OC)cc3CCN2CC1CC(C)C (centres undefined) |  | inactive: 6.45%
58 | CCc1ccc(CNCc2c(C(=O)O)n(Cc3ccc(C)cc3)c3cc(C)ccc23)cc1 | inconclusive [inhibitor, partial curve, poor fit] | 
59 | CCOC(=O)c1ccccc1NC(=O)COc1ccccc1-c1nnc(-c2ccccc2)o1 | inconclusive [inhibitor, partial curve, poor fit] | 

From PubChem BioAssay AID1347055 (National Center for Advancing Translational Sciences (NCATS), 2019)
